Results reported in PubChem BioAssay AID504333 (National Center for Advancing Translational Sciences (NCATS), 2011).
Several values for one entry are separate records, joined by “and”; a condition that tells them apart may be missing. Identical values can stand only once. Out of some 360,000 compounds screened, about 16,000 (4.4%) were called active. This list was built around the results that the source calls inconclusive (neither active nor inactive); the mix of calls is not that of the screen. Calls follow the shape of the dose curve; as a rule, active = well fitted inhibition curve with a large enough effect; inconclusive = small, poorly fitted or top-dose-only effect; inactive = no such curve, though single readings can be large or run the other way. A potency beside an inconclusive call is a rough fit, not a confirmed value.

target: Bromodomain adjacent to zinc finger domain protein 2B (Homo sapiens) (UniProt Q9UIF8); assay: qHTS Assay for Inhibitors of BAZ2B; details: AlphaScreen BAZ2B-H3K14Ac peptide displacement; activity change, negative = inhibition: at 114 µM (top of the series) unless noted; also: nearly all actives have a fitted effect of over 60% in size
Method in brief: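 BAZ2B 50 nM plus b-H3(5-23)K14Ac 50 nM, PBS pH 7.4/0.01% Tween-20, 30 min RT; compound added (max 110 uM), 30 min RT; streptavidin donor/Ni-chelate acceptor beads 10 ug/mL final, 20 min dark; AlphaScreen read.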
% is scaled to controls: 0 for no effect and ±100 for the full control effect; potency is read from the fitted curve at half-maximal effect; tags tell the direction and shape of the fitted curve.

UniProt Q9UIF8, sequence (Q9UIF8 whole entry, looked up, the tested form may be a part): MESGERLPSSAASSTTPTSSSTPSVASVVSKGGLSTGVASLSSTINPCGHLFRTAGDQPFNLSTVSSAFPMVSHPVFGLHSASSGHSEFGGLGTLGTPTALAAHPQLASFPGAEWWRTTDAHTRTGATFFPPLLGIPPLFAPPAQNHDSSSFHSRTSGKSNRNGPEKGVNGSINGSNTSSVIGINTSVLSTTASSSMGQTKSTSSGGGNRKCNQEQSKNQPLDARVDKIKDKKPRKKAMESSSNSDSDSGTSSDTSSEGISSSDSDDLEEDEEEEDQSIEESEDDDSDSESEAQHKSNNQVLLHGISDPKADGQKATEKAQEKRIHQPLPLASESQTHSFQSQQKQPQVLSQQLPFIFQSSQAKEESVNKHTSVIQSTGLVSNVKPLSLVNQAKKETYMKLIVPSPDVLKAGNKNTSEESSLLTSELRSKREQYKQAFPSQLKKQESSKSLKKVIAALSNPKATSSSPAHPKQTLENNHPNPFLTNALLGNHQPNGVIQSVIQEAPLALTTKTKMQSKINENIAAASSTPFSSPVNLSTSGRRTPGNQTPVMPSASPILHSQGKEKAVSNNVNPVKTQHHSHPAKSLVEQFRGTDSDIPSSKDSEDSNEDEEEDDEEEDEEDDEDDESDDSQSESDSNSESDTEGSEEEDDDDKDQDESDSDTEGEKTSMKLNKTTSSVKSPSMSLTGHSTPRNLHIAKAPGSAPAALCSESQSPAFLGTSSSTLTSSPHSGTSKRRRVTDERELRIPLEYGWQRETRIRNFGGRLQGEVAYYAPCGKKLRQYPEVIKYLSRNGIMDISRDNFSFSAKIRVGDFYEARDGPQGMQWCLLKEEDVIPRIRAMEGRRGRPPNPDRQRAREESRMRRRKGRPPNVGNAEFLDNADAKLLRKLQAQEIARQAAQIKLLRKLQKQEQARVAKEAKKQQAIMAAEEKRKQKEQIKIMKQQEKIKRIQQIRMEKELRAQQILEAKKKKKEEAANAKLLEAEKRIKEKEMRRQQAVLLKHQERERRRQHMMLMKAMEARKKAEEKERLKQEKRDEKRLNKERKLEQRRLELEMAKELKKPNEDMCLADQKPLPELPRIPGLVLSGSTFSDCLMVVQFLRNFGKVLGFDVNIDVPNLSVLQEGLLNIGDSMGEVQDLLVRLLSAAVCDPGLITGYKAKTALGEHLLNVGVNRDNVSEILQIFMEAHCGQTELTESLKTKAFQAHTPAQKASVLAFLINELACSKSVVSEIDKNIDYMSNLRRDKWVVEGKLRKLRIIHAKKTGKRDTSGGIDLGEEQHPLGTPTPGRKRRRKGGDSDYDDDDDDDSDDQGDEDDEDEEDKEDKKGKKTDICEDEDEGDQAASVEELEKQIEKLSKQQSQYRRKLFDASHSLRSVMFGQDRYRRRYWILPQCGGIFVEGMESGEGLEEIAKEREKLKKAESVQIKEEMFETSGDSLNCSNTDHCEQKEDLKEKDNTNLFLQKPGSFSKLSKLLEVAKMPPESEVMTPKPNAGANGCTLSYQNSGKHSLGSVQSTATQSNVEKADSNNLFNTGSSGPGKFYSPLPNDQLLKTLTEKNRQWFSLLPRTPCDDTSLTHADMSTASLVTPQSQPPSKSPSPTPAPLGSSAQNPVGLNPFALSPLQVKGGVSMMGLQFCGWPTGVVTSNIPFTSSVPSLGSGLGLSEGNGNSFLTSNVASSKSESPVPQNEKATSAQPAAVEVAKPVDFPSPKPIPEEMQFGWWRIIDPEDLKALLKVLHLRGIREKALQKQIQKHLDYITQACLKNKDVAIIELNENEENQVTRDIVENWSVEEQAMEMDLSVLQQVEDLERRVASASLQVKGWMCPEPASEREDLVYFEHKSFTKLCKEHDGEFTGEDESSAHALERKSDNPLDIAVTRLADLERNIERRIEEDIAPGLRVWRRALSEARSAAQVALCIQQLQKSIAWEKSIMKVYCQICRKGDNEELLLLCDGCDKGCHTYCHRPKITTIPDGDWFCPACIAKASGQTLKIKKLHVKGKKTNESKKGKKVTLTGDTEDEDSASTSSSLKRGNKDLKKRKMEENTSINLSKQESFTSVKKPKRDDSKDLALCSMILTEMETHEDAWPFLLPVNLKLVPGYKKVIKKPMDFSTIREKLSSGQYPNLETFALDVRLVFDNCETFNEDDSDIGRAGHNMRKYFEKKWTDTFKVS

Compound	activity change, negative = inhibition	Potency
C=CCn1c(SCC(=O)Nc2ccccc2F)nc2ccccc2c1=O	inactive: -1.23%	–
CC(Oc1ccc2ccc(=O)oc2c1)C(=O)NC(Cc1c[nH]c2ccc(O)cc12)C(=O)O (stereo not drawn)	–	inconclusive: 89.1 µM [inhibitor, single point]
CCc1ccc(N2C(=O)N(CC(=O)C(C)(C)C)c3ccccc3S2(=O)=O)cc1	inactive: -0.336%	–
COc1ccc(C2=C(O)C(C)N(c3ccccc3)C2=N)cc1OC (stereo not drawn)	inactive: -4.64%	–
COc1cccc2[nH]c(C(=O)NCc3ccccc3)cc12	inactive: -6.03%	–
COc1ccc(-c2csc(Nc3ccc(S(=O)(=O)Nc4cc(C)on4)cc3)n2)cc1	–	inconclusive: 50.1 µM [inhibitor, partial curve]
CC(=O)c1cc(-c2ccccc2)n(CCC(=O)NC2CCCCCC2)c1C	–	active: 50.1 µM
O=C(CSc1ccccn1)Nc1ccc2c(c1)C(=O)c1ccccc1C2=O	–	active: 50.1 µM
COc1cc(OC)c(NC(=O)Cn2cnc3nc4c(cc3c2=O)CCCC4)cc1Cl	inactive: 0.617%	–
CCc1ccc(NC2Nc3cc(C)nn3S2)cc1 (stereo not drawn)	–	inconclusive: 79.4 µM [inhibitor, single point]
CC1CN(CCOCCOc2ccccc2-c2ccccc2)CC(C)O1 (stereo not drawn)	–	active: 22.4 µM
CNC(=O)c1ncoc1-c1ccc(Cl)cc1	inactive: -0.171%	–
COc1ccc(NC(=O)CCC(=O)NCc2ccco2)c([N+](=O)[O-])c1	inactive: -35.9%	–
Cc1cc(C)c(C(=O)CSc2nc(C)cc(=O)[nH]2)c(C)c1	–	inconclusive: 89.1 µM [inhibitor, single point]
CC(C)(C)c1ccc(C(=O)N2CCN(Cc3cc(=O)n4nc(-c5ccccc5F)sc4n3)CC2)cc1	inactive: 2.08%	–
O=C1C(=O)N(Cc2ccco2)C(c2cccc(Cl)c2)/C1=C(\O)c1ccc2c(c1)OCCO2 (stereo not drawn)	–	inconclusive: 79.4 µM [inhibitor, single point]
COc1ccc(OCc2cc(C(=O)N3CCC(OC)CC3)no2)c2ccccc12	–	inconclusive: 50.1 µM [inhibitor, partial curve, poor fit]
O=C(OCC(=O)N1CCN(c2ccccc2)CC1)c1ccc(Cl)cc1[N+](=O)[O-]	–	inconclusive: 44.7 µM [inhibitor, partial curve]
C=CC1=C(C(=O)O)N2C(=O)C(NC(=O)Cc3ccccc3)C2SC1 (stereo not drawn)	–	inconclusive: 89.1 µM [inhibitor, single point]
Cc1ccc(C2c3[nH]c4ccccc4c3CCN2C(=O)CCc2ccccc2)cc1 (stereo not drawn)	–	inconclusive: 25.1 µM [inhibitor, full curve]
Cc1ccc2ncccc2c1[N+](=O)[O-]	inactive: 2.9%	–
Cc1sc2ncnc(N=Nc3c(O)[nH]c4ccccc34)c2c1C	–	inconclusive: 39.8 µM [inhibitor, full curve, poor fit]

Compound	activity change, negative = inhibition	Potency
COC(=O)CCCC1=CC2=CC(=O)C(C)(OC(=O)c3cccs3)C(=O)C2=CN1Cc1ccc2c(c1)OCO2 (stereo not drawn)	–	inconclusive: 79.4 µM [inhibitor, partial curve]
COc1cccc(NC(=S)/C(=C(\[O-])c2ccc([N+](=O)[O-])cc2)[n+]2ccccc2)c1	–	active: 50.1 µM
O=S(Cc1ccc(Cl)cc1)c1ncc(CO)n1Cc1ccccc1 (stereo not drawn)	–	inconclusive: 79.4 µM [inhibitor, single point]
CCN1CCN(C(=O)Nc2cccc3ccccc23)CC1	–	inconclusive: 12.6 µM [inhibitor, single point]
Fc1ccc(Nc2c(-c3ccco3)nc3ccccn23)cc1	–	active: 44.7 µM
Cc1ccn2c(Nc3ccccc3C)c(-c3cccnc3)nc2c1	–	inconclusive: 50.1 µM [inhibitor, partial curve] and inconclusive: 31.6 µM [inhibitor, partial curve]
O=C(c1cccc2ccccc12)N1CCN(c2ccc([N+](=O)[O-])c(N3CCOCC3)c2)CC1	–	inconclusive: 70.8 µM [inhibitor, single point]
C=CCSc1nnc(NC(=O)c2cccc(S(=O)(=O)N3CCOCC3)c2)s1	–	inconclusive: 89.1 µM [inhibitor, single point]
Cn1nccc1-c1cc(Cl)cc(Cl)c1O	–	inconclusive: 89.1 µM [inhibitor, single point]
CCn1nc(NS(=O)(=O)c2ccc([N+](=O)[O-])cc2)c2cc3cc(C)ccc3nc21	–	inconclusive: 44.7 µM [inhibitor, partial curve]
CCN(CC)CCNS(=O)(=O)c1ccc2[nH]cc(C(=O)O)c(=O)c2c1	–	inconclusive: 89.1 µM [inhibitor, single point]
BrC(=C\c1ccccc1)/C=N/Nc1ccc2nncn2n1	–	active: 44.7 µM
CCOC(=O)c1cc(CN2CCOCC2)oc1-c1ccccc1	–	inconclusive: 89.1 µM [inhibitor, single point]
COc1ccc(/C=N/NC(=O)c2cc(C)n(-c3ccccc3)c2C)cc1OC	–	inconclusive: 39.8 µM [inhibitor, full curve, poor fit]
COc1cc(Nc2nc3ccccc3nc2NS(=O)(=O)c2ccc([N+](=O)[O-])cc2)cc(OC)c1OC	–	active: 7.94 µM
COc1ccccc1NC(=O)CC1S/C(=N/N=C2\CCCc3ccccc32)NC1=O (stereo not drawn)	–	inconclusive: 28.2 µM [inhibitor, full curve]
CN(C)NC(=O)c1csnc1-c1c(Cl)cccc1Cl	–	inconclusive: 89.1 µM [inhibitor, single point]
Cc1ccc(N=C2C(=S)N(c3ccc(C)cc3)C(=N)N2/N=C/c2ccc(Cl)cc2)cc1	–	inconclusive: 39.8 µM [inhibitor, full curve]
CC(C)(Oc1ccc(Cl)cc1)C(=O)Nc1nnc2n1CCS2	–	inconclusive: 89.1 µM [inhibitor, single point]
O=C(CSc1nc(NS(=O)(=O)c2ccccc2)cc(=O)[nH]1)Nc1cccc(C(F)(F)F)c1	–	inconclusive: 89.1 µM [inhibitor, single point]
Cc1ccccc1NC(=O)CCC(=O)N/N=C/c1ccncc1	–	inconclusive: 8.91 µM [inhibitor, full curve]
